Hit rate of the full screen: of about 340,000 compounds, about 12,000 (3.5%) were called active. The shares of active, inactive and inconclusive entries below differ from those in the screen. The call rests on the fitted dose curve; in most records, active means well fitted inhibition curve with a large enough effect; inconclusive means small, poorly fitted or top-dose-only effect, or another doubt; inactive means no such curve, though single readings can be large or run the other way. Potencies of inconclusive entries are left out as doubtful fits.
Test: qHTS Assay for Inhibitors of Hepatitis C Virus (HCV)
Details: Huh7.5.1 HCVcc-Cre (HCVcc is cell-culture hepatitis C virus) infection, luciferase reporter, 44 h; activity change, negative = inhibition: at 41.8 µM (top of the series) unless noted
How it was run: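 1,000 cells/well; 4 h culture; + compound; + HCVcc-Cre (~0.5 moi); 44 h; luciferase substrate, RT 15 min; read 15 sec.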
On the % scale 0 is the no-effect control and ±100 the full control effect; potency means the concentration at half of the fitted maximal effect; tags describe the fitted curve by direction and shape.

**Q.** With `O=Cc1c[nH]c2cccc(OCc3ccccc3)c12` as the molecule, how does the Potency read?
**A.** Its Potency is inconclusive [inhibitor, single point].

**Q.** For `COc1ccc(CC(=O)N2CC(=O)N(CCc3ccccc3)C(=O)C2)cc1`, which “activity change, negative = inhibition” value is on record?
**A.** The value was inactive: 19.2%.

**Q.** Which Potency does the source give for `N=c1sccn1CC(=O)Nc1cccc(S(=O)(=O)N2CCCCCC2)c1` here?
**A.** The Potency was active: 10 µM.

**Q.** For `CCCC(=O)c1cc(-c2nc3ccccc3n2C)n(C)c1`, which Potency is on record?
**A.** The Potency was active: 22.4 µM.

**Q.** Which “activity change, negative = inhibition” value does the source give for `COc1ccc2nc(NCCNC(=S)NCCCN3CCOCC3)c(C#N)cc2c1` here?
**A.** Its value is inactive: -23%.

**Q.** Which Potency does the source give for `COc1cc(NC(=O)c2cc3c(Cl)nc4ccccc4c3s2)cc(OC)c1OC` here?
**A.** Its Potency is inconclusive [inhibitor, full curve, poor fit].

**Q.** With `Cc1cnc(C(=O)OCC(=O)c2cc(C)n(C)c2C)cn1` as the molecule, how does the “activity change, negative = inhibition” value read?
**A.** The value was inactive: -4.89%.

**Q.** Which Potency does the source give for `c1nc(N2CCOCC2)c2c3c(sc2n1)CCCC3` here?
**A.** Its Potency is inconclusive [inhibitor, partial curve].

**Q.** With `CC1CCCC=CC2CC(OC(=O)CN(C)C)CC2C(O)C=CC(=O)O1` (stereo unspecified) as the molecule, how does the Potency read?
**A.** Its Potency is active: 0.562 µM.

**Q.** With `CC(C)n1cc(CN2CCC(C(=O)Nc3ccc(Oc4ccccc4F)cc3)CC2)cn1` as the molecule, how does the Potency read?
**A.** The Potency was active: 11.2 µM.

**Q.** Which Potency does the source give for `O=C1c2ccccc2C(=O)N1CCc1c(-c2[nH]c3ccccc3c2CCN2C(=O)c3ccccc3C2=O)[nH]c2ccccc12` here?
**A.** The Potency was inconclusive [inhibitor, single point].

**Q.** Which “activity change, negative = inhibition” value does the source give for `c1ccc(-c2ccc(-c3csnn3)cc2)cc1` here?
**A.** Its value is inactive: -5.58%.

**Q.** Which Potency does the source give for `NCCCC[C@H]1CNC(=S)N1CCc1cc(C(F)(F)F)cc(C(F)(F)F)c1` here?
**A.** Its Potency is inconclusive [inhibitor, partial curve].

**Q.** With `COc1ccc(C(=O)NC(=S)NNC(=O)c2cnccn2)cc1OC` as the molecule, how does the Potency read?
**A.** The Potency was inconclusive [inhibitor, single point].

**Q.** For `O=C(Cc1ccccc1)Nn1c(O)c(/C=C2\C=Nc3ccccc32)sc1=S`, which Potency is on record?
**A.** Its Potency is inconclusive [inhibitor, single point].

**Q.** Which “activity change, negative = inhibition” value does the source give for `CC[C@H]1CN2CCC1C[C@@H]2[C@@H](O)c1ccnc2ccc(OC)cc12` (stereo partly specified) here?
**A.** The value was inactive: -15.4%.

**Q.** With `C[C@@H](NC(=O)[C@@H]1Cc2ccccc2CN1)C(=O)Nc1ccc2c(c1)OCCO2` as the molecule, how does the “activity change, negative = inhibition” value read?
**A.** Its value is inactive: 12.7%.

**Q.** Which Potency does the source give for `Cc1ccc(NC(=O)Cn2c(=O)oc3cc(S(=O)(=O)N4CCC(C)CC4)ccc32)cc1C` here?
**A.** Its Potency is inconclusive [inhibitor, partial curve].

**Q.** Which Potency does the source give for `COc1ccc(CC(=O)Oc2ccc(C(C)(C)C)cc2)cc1S(=O)(=O)N1CCOCC1` here?
**A.** Its Potency is inconclusive [inhibitor, single point].

**Q.** With `Cn1c(O)c(C(c2ccccn2)c2c(O)n(C)c(=S)[nH]c2=O)c(=O)[nH]c1=S` as the molecule, how does the “activity change, negative = inhibition” value read?
**A.** The value was inactive: 16.6%.

**Q.** For `CCOC(=O)c1c(C)n(C)c2cc(Br)c(C)cc12`, which Potency is on record?
**A.** The Potency was active: 8.91 µM.
